# Test results: the supplement of paper PMC10037445
# Over roughly 2,900 compounds, “NF-kB SEAP reporter activity, fold change vs agonist alone” has its median near 0.99; the highest 2% begin near 2.6. Some of the results follow.
# Columns and labels:
# RAW-Dual [1] = test: NF-kB SEAP reporter activity, fold change vs agonist alone; higher = enhanced NF-kB activity
# Summary of the method: (§1)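 Supernatant from RAW-Dual macrophages was read after 20 hours for IRF by QuantiLuc luminescence and for NF-κB by QuantiBlue absorbance at 620 nm. The cells (50,000 cells/well in DMEM, 384-well plates, 37 °C, 5% CO2) had received 50 nL of library stock by pin tool and, 1 h later, a PRR agonist. Reporter activity is expressed relative to agonist-alone wells as fold change, and wells were flagged cytotoxic if IncuCyte confluency was under 70% of agonist controls in both mask sets.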
# RAW-Dual [2] = test: NF-kB SEAP reporter activity, fold change vs agonist alone; cytotoxicity flag (confluency mask): cytotoxic (confluency <70% of control); higher = enhanced NF-kB activity
# Summary of the method: as §1
# RAW-Dual [3] = test: NF-kB SEAP reporter activity, fold change vs agonist alone; cytotoxicity flag (confluency mask): not cytotoxic; higher = enhanced NF-kB activity
# Summary of the method: as §1
# [4] = library stock concentration (final ~1000-fold dilution): 10 mM, cytotoxicity flag (confluency mask): cytotoxic (confluency <70% of control), agonist: Imiquimod (TLR7) […]
# [5] = library stock concentration (final ~1000-fold dilution): 10 mM, cytotoxicity flag (confluency mask): cytotoxic (confluency <70% of control), agonist: MPLA (TLR4) […]
# [6] = agonist: ODN 1826 (TLR9) 0.5 ug/mL
# [7] = agonist: Pam2CSK4 (TLR2/6) 0.1 ug/mL
# [8] = agonist: Pam3CSK4 (TLR2/1) 0.1 ug/mL
# [9] = library stock concentration (final ~1000-fold dilution): 10 mM, cytotoxicity flag (confluency mask): not cytotoxic, agonist: Imiquimod (TLR7) […]
# [10] = library stock concentration (final ~1000-fold dilution): 10 mM, cytotoxicity flag (confluency mask): not cytotoxic, agonist: MPLA (TLR4) […]
compound,measurement,setting,value
COc1cc(CCc2cc(NC(=O)c3ccc(N4CC(C)NC(C)C4)cc3)n[nH]2)cc(OC)c1 (configuration not stated),NF-kB SEAP reporter activity,RAW-Dual [1]; [4],2.27
same,NF-kB SEAP reporter activity,RAW-Dual [1]; [5],2.29
COc1cc(CCc2cc(NC(=O)c3ccc(N4CC(C)NC(C)C4)cc3)n[nH]2)cc(OC)c1 (configuration not stated) (library stock concentration (final ~1000-fold dilution): 10 mM),NF-kB SEAP reporter activity,RAW-Dual [2]; agonist: LPS (TLR4) 0.1 ug/mL,1.93
same,NF-kB SEAP reporter activity,RAW-Dual [2]; [6],0.305
same,NF-kB SEAP reporter activity,RAW-Dual [2]; [7],0.68
same,NF-kB SEAP reporter activity,RAW-Dual [2]; [8],1
CNCc1ccc(C)c(NC(=O)c2ccc(Nc3nc(-c4ccccc4)c4ccccc4n3)cc2)c1 (library stock concentration (final ~1000-fold dilution): 10 mM),NF-kB SEAP reporter activity,RAW-Dual [3]; agonist: LPS (TLR4) 0.1 ug/mL,1.02
same,NF-kB SEAP reporter activity,RAW-Dual [3]; [6],0.866
same,NF-kB SEAP reporter activity,RAW-Dual [3]; [7],0.925
same,NF-kB SEAP reporter activity,RAW-Dual [3]; [8],0.951
CNCc1ccc(C)c(NC(=O)c2ccc(Nc3nc(-c4ccccc4)c4ccccc4n3)cc2)c1,NF-kB SEAP reporter activity,RAW-Dual [1]; [9],0.945
same,NF-kB SEAP reporter activity,RAW-Dual [1]; [10],0.949
CCCc1cc2c(N3CCN(C4=NCC(C)(C)S4)CC3)ncnc2s1 (library stock concentration (final ~1000-fold dilution): 10 mM),NF-kB SEAP reporter activity,RAW-Dual [3]; agonist: LPS (TLR4) 0.1 ug/mL,1.25
same,NF-kB SEAP reporter activity,RAW-Dual [3]; [6],0.768
same,NF-kB SEAP reporter activity,RAW-Dual [3]; [7],0.819
same,NF-kB SEAP reporter activity,RAW-Dual [3]; [8],1.01
CCCc1cc2c(N3CCN(C4=NCC(C)(C)S4)CC3)ncnc2s1,NF-kB SEAP reporter activity,RAW-Dual [1]; [9],0.664
same,NF-kB SEAP reporter activity,RAW-Dual [1]; [10],1.14
Cc1cn(-c2cc(NC(=O)c3ccc(C)c(Nc4nccc(-c5cnccn5)n4)c3)cc(C(F)(F)F)c2)cn1 (library stock concentration (final ~1000-fold dilution): 10 mM),NF-kB SEAP reporter activity,RAW-Dual [3]; agonist: LPS (TLR4) 0.1 ug/mL,0.824
same,NF-kB SEAP reporter activity,RAW-Dual [3]; [6],0.908
same,NF-kB SEAP reporter activity,RAW-Dual [3]; [7],0.453
same,NF-kB SEAP reporter activity,RAW-Dual [3]; [8],0.663
Cc1cn(-c2cc(NC(=O)c3ccc(C)c(Nc4nccc(-c5cnccn5)n4)c3)cc(C(F)(F)F)c2)cn1,NF-kB SEAP reporter activity,RAW-Dual [1]; [9],0.942
same,NF-kB SEAP reporter activity,RAW-Dual [1]; [10],1.02
Fc1ccc(Nc2nc(Nc3ccc(-c4nc5ccccc5[nH]4)cc3)nc(N3CCOCC3)n2)cc1 (library stock concentration (final ~1000-fold dilution): 10 mM),NF-kB SEAP reporter activity,RAW-Dual [2]; agonist: LPS (TLR4) 0.1 ug/mL,0.621
same,NF-kB SEAP reporter activity,RAW-Dual [2]; [6],0.452
same,NF-kB SEAP reporter activity,RAW-Dual [2]; [7],0.212
same,NF-kB SEAP reporter activity,RAW-Dual [2]; [8],0.25
Fc1ccc(Nc2nc(Nc3ccc(-c4nc5ccccc5[nH]4)cc3)nc(N3CCOCC3)n2)cc1,NF-kB SEAP reporter activity,RAW-Dual [1]; [4],0.399
same,NF-kB SEAP reporter activity,RAW-Dual [1]; [5],1.42
CN1c2ccccc2C(=O)N2CCc3c([nH]c4ccccc34)C21 (configuration not stated),NF-kB SEAP reporter activity,RAW-Dual [1]; [9],1.19
same,NF-kB SEAP reporter activity,RAW-Dual [1]; [10],1.24
CN1c2ccccc2C(=O)N2CCc3c([nH]c4ccccc34)C21 (configuration not stated) (library stock concentration (final ~1000-fold dilution): 10 mM),NF-kB SEAP reporter activity,RAW-Dual [3]; agonist: LPS (TLR4) 0.1 ug/mL,1.86
same,NF-kB SEAP reporter activity,RAW-Dual [3]; [6],1.27
same,NF-kB SEAP reporter activity,RAW-Dual [3]; [7],0.943
same,NF-kB SEAP reporter activity,RAW-Dual [3]; [8],1.1
Cl.NCCCCC(N)C(=O)O (configuration not stated),NF-kB SEAP reporter activity,"RAW-Dual [1]; library stock concentration (final ~1000-fold dilution): 10 mM water, cytotoxicity flag (confluency mask): not cytotoxic, agonist: Imiquimod (TLR7) […]",0.925
same,NF-kB SEAP reporter activity,"RAW-Dual [1]; library stock concentration (final ~1000-fold dilution): 10 mM water, cytotoxicity flag (confluency mask): not cytotoxic, agonist: MPLA (TLR4) […]",1.06
Cl.NCCCCC(N)C(=O)O (configuration not stated) (library stock concentration (final ~1000-fold dilution): 10 mM water),NF-kB SEAP reporter activity,RAW-Dual [3]; agonist: LPS (TLR4) 0.1 ug/mL,1.04
same,NF-kB SEAP reporter activity,RAW-Dual [3]; [6],1.11
same,NF-kB SEAP reporter activity,RAW-Dual [3]; [7],1.21
same,NF-kB SEAP reporter activity,RAW-Dual [3]; [8],1.17
Cc1c(S(=O)(=O)O)oc2c1C(=O)C(=O)c1c-2ccc2c1CCCC2(C)C,NF-kB SEAP reporter activity,RAW-Dual [1]; [9],0.804
same,NF-kB SEAP reporter activity,RAW-Dual [1]; [10],0.875
Cc1c(S(=O)(=O)O)oc2c1C(=O)C(=O)c1c-2ccc2c1CCCC2(C)C (library stock concentration (final ~1000-fold dilution): 10 mM),NF-kB SEAP reporter activity,RAW-Dual [3]; agonist: LPS (TLR4) 0.1 ug/mL,0.96
same,NF-kB SEAP reporter activity,RAW-Dual [3]; [6],0.907
same,NF-kB SEAP reporter activity,RAW-Dual [3]; [7],1.01
same,NF-kB SEAP reporter activity,RAW-Dual [3]; [8],0.929
O=C(O)/C(Cc1ccccc1[N+](=O)[O-])=N/Nc1nc(-c2ccc(Cl)c(Cl)c2)cs1 (library stock concentration (final ~1000-fold dilution): 10 mM),NF-kB SEAP reporter activity,RAW-Dual [3]; agonist: LPS (TLR4) 0.1 ug/mL,1.2
same,NF-kB SEAP reporter activity,RAW-Dual [3]; [6],0.919
same,NF-kB SEAP reporter activity,RAW-Dual [3]; [7],1.1
same,NF-kB SEAP reporter activity,RAW-Dual [3]; [8],1.2
O=C(O)/C(Cc1ccccc1[N+](=O)[O-])=N/Nc1nc(-c2ccc(Cl)c(Cl)c2)cs1,NF-kB SEAP reporter activity,RAW-Dual [1]; [9],0.981
same,NF-kB SEAP reporter activity,RAW-Dual [1]; [10],1.11
COc1cc(/C=C/C(=O)O)cc(OC)c1O,NF-kB SEAP reporter activity,RAW-Dual [1]; [9],0.781
same,NF-kB SEAP reporter activity,RAW-Dual [1]; [10],0.958
COc1cc(/C=C/C(=O)O)cc(OC)c1O (library stock concentration (final ~1000-fold dilution): 10 mM),NF-kB SEAP reporter activity,RAW-Dual [3]; agonist: LPS (TLR4) 0.1 ug/mL,1.1
same,NF-kB SEAP reporter activity,RAW-Dual [3]; [6],0.868
same,NF-kB SEAP reporter activity,RAW-Dual [3]; [7],0.974
same,NF-kB SEAP reporter activity,RAW-Dual [3]; [8],0.768
CC#CCn1c(N2CCCC(N)C2)nc2c1c(=O)n(Cc1nc(C)c3ccccc3n1)c(=O)n2C (configuration not stated),NF-kB SEAP reporter activity,RAW-Dual [1]; [9],0.851
same,NF-kB SEAP reporter activity,RAW-Dual [1]; [10],1
CC#CCn1c(N2CCCC(N)C2)nc2c1c(=O)n(Cc1nc(C)c3ccccc3n1)c(=O)n2C (configuration not stated) (library stock concentration (final ~1000-fold dilution): 10 mM),NF-kB SEAP reporter activity,RAW-Dual [3]; agonist: LPS (TLR4) 0.1 ug/mL,1.31
same,NF-kB SEAP reporter activity,RAW-Dual [3]; [6],0.823
same,NF-kB SEAP reporter activity,RAW-Dual [3]; [7],1.05
same,NF-kB SEAP reporter activity,RAW-Dual [3]; [8],1.17
CN1CCC(=C2c3ccccc3CCn3c(C=O)cnc32)CC1,NF-kB SEAP reporter activity,RAW-Dual [1]; [10],0.936
